Data reported in PubChem BioAssay AID2147 (National Center for Advancing Translational Sciences (NCATS), 2009).
Out of some 230,000 compounds screened, about 3,600 (1.6%) were called active. Inconclusive results, whose numbers are uncertain, are shown with a selection of clear calls. The call rests on the fitted dose curve; in most records, active means well fitted inhibition curve with a large enough effect (not every such curve was filed as active); inconclusive means small, poorly fitted or top-dose-only effect, or another doubt; inactive means no such curve, though single readings can be large or run the other way. Potencies beside an inconclusive call are fits to weak or partial responses and may not hold up.

Target: Lysine-specific demethylase 4E (Homo sapiens) (UniProt B2RXH2)
Assay: qHTS Assay for Inhibitors of Human Jumonji Domain Containing 2E (JMJD2E)
Details: JMJD2E catalytic domain, FDH-coupled NADH fluorescence (FDH is formaldehyde dehydrogenase); series mostly up to 57.1 µM
Further: nearly all actives have a fitted effect of over 50% in size.
Potency means the concentration at half of the fitted maximal effect; tags describe the fitted curve by direction and shape.

Sequence of UniProt B2RXH2 (B2RXH2 whole entry, looked up, the tested form may be a part): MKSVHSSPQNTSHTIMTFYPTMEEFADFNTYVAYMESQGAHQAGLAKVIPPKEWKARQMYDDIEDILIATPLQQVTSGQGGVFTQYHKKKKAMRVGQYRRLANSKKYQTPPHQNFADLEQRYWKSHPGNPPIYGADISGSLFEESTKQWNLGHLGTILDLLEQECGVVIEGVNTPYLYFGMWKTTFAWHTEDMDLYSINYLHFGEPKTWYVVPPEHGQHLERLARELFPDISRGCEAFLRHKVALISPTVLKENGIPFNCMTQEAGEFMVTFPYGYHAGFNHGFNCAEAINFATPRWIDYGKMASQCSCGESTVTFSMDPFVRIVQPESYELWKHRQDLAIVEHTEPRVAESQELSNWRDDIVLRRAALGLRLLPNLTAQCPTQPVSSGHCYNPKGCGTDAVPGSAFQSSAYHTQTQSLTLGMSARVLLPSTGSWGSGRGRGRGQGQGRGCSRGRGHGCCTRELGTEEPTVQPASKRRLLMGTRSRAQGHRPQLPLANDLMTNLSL

Compound	Potency
CC(C)CN(Cc1cc2ccccc2[nH]c1=O)C(=O)c1cccnc1	inconclusive: 31.6 µM [inhibitor, single point]
CCOc1cc2[nH]c(=O)n(CCCC(=O)NCc3ccc(OC)cc3)c(=O)c2cc1OCC	inconclusive: 7.08 µM [inhibitor, full curve]
CCn1c(C)nc2cc(-c3nc4n(n3)Cc3ccccc3-4)ccc21	inconclusive: 25.1 µM [inhibitor, partial curve]
CSc1ccc(-c2nc3cnccn3c2Nc2ccc3c(c2)OCO3)cc1	inactive
C/C(=N\Nc1nnc(C)c(=O)[nH]1)C(=O)O	inactive
COc1cc(OC)cc(C(=O)Nc2ccc(NC(=O)c3ccco3)c(Cl)c2)c1	inconclusive: 28.2 µM [inhibitor, partial curve]
COc1cccc(CNc2ccc(N3CCC(C)CC3)cc2)c1OC	active: 12.6 µM
COc1cc(C2C(C#N)=C(N)OC3=C2C(=O)CC(C)(C)C3)ccc1OC(=O)N1CCOCC1 (stereo not given)	inactive
CCOC(=O)c1c(NC(=O)C(=O)N/N=C/c2ccccc2O)sc2c1CCCCC2	active: 31.6 µM
O=C(NCCCO)/C(=C\C=C\c1ccccc1)NC(=O)c1ccccc1Cl	inconclusive: 10 µM [inhibitor, partial curve]
O=C(NC(Cc1ccccc1)C(=O)O)/C(=C\c1ccco1)NC(=O)c1ccccc1Br (stereo not given)	inactive
CC(C)CC(NC(=O)C1CCCCC1)C(=O)N1CCN(c2ccccn2)CC1 (stereo not given)	inconclusive: 25.1 µM [inhibitor, partial curve]
Cc1ccc(S(=O)(=O)N2c3ccccc3OCC2c2ccccc2)cc1 (stereo not given)	inactive
NC(=O)Nn1c(CCC(=O)O)ccc1-c1ccc(F)cc1	inconclusive: 35.5 µM [inhibitor, partial curve]
Cc1cc(C)c2c3c(sc2n1)C(c1cccc(F)c1)C(C#N)=C(N)O3 (stereo not given)	inconclusive: 35.5 µM [inhibitor, single point]
N#C/C(=C\c1ccc(OCC(N)=O)cc1)c1ccccc1	inconclusive: 35.5 µM [inhibitor, single point]
CCOC(=O)c1sc(N(Cc2ccccc2)C(=O)CSc2ncn[nH]2)nc1C	inconclusive: 35.5 µM [inhibitor, single point]
CCCC(=O)Nc1ccc(OCC(O)CNC(C)C)c(C(C)=O)c1 (stereo not given)	inconclusive: 14.1 µM [inhibitor, partial curve]
COCC(=O)N(CCN(C)C)Cc1cc2cc3c(cc2nc1Cl)OCO3	inconclusive: 22.4 µM [inhibitor, partial curve]
Cc1cc(C)n(CCCC(=O)O)n1	inconclusive: 10 µM [inhibitor, single point]
c1cc(-c2cccs2)nc(-c2cccs2)c1	inconclusive: 31.6 µM [inhibitor, partial curve]
COc1ccc(NC(=O)/C=C/c2ccccc2)c([N+](=O)[O-])c1	inactive
CCOC(=O)c1nn(-c2ccc(OCC)cc2)c2nc(CC(C)C)c(C#N)c(=O)n12	inconclusive: 10 µM [inhibitor, partial curve]
Cc1cc(C(=O)CSc2nnc(-c3cccs3)o2)c(C)n1-c1ccccc1	inconclusive: 20 µM [inhibitor, single point]

Compound	Potency
O=c1[nH]c2cc3c(cc2cc1C(c1nnnn1C1CCCCC1)N1CCSCC1)OCCO3 (stereo not given)	inconclusive: 28.2 µM [inhibitor, partial curve]
O=C(NC(Cc1c[nH]c2ccccc12)C(=O)O)/C(=C/c1ccc2c(c1)OCO2)NC(=O)c1ccccc1 (stereo not given)	inactive
CCOc1ccccc1-c1nc(-c2ccc(NC(=O)c3ccc(Br)o3)cc2)no1	inconclusive: 35.5 µM [inhibitor, single point]
Cc1[nH]c2ccccc2c1CCN(Cc1cccnc1)C(=S)Nc1cccc(F)c1	inactive
Cn1c(=O)[nH]c(=O)c2c1nc(SCC(=O)O)n2CCc1ccccc1	inactive
COc1ccc(-c2cc(-c3ccccc3)nc(=O)[nH]2)cc1	inconclusive: 28.2 µM [inhibitor, partial curve]
O=C(Nc1cccc(-c2nc3ccccc3o2)c1)c1ccc(N2C(=O)C3C4C=CC(C4)C3C2=O)cc1 (stereo not given)	inconclusive: 39.8 µM [inhibitor, single point]
COc1ccc(/C=C/C(=O)Oc2ccc(C)c(C)c2)cc1OC	inconclusive: 35.5 µM [inhibitor, partial curve]
CC(C)CCc1noc(CN(C)CCC2CCOCC2)n1	inactive
Cc1sc(NC(=O)CSc2nnnn2C2CCCCC2)c(C#N)c1C	inconclusive: 35.5 µM [inhibitor, partial curve]
COc1cc(NC(=O)CSc2nc3ccccc3c(=O)n2C)ccc1NC(=O)c1ccco1	inconclusive: 39.8 µM [inhibitor, single point]
Cc1cc(N=Cc2c(O)n(-c3ccc(C)c(C)c3)c(=O)c3ccccc23)no1	inconclusive: 25.1 µM [inhibitor, partial curve]
Nc1ccc(-c2nc3c(Cl)cc(N)cc3[nH]2)cc1	inconclusive: 28.2 µM [inhibitor, partial curve]
COC(=O)c1ccccc1NC(=O)COC(=O)c1ccco1	inconclusive: 39.8 µM [inhibitor, single point]
O=C(NCC1CCCO1)c1ccc2c(=O)n(Cc3ccc(Cl)cc3)c(=S)[nH]c2c1 (stereo not given)	inactive
CCOC(=O)C1CCN(C(=O)c2cn(CCOC)c(=O)c3c2c2ccccc2n3C)CC1	inconclusive: 25.1 µM [inhibitor, partial curve]
O=c1oc2ccccc2c(O)c1C=NCc1ccccn1	inactive
CCCSc1nc(-c2ccccc2)cc(C(F)(F)F)c1C#N	inconclusive: 31.6 µM [inhibitor, single point]
C/C(=N\Nc1ccc(C(=O)c2c(C)cc3ccccn23)cc1[N+](=O)[O-])c1ccc(O)cc1	inactive
CCN(CC(=O)NCc1ccc(F)cc1)Cc1cc(=O)n2ccsc2n1	inconclusive: 35.5 µM [inhibitor, single point]
COCCN=c1scc(-c2cc(OC)c(OC)c(OC)c2)n1/N=C/c1c(C)[nH]c2ccccc12	inconclusive: 25.1 µM [inhibitor, single point]
C[C@@H]1O[C@@H](OC[C@H]2O[C@@H](Oc3c(-c4ccc(O)c(O)c4)oc4cc(O)cc(O)c4c3=O)[C@H](O)[C@@H](O)[C@@H]2O)[C@H](O)[C@H](O)[C@H]1O	active: 14.1 µM
CCCCn1c(CCC(=O)O)nc2cc(S(=O)(=O)N(CC)CC)ccc21	inactive
O=C(O)CC(CC(=O)Nc1ccccc1C(=O)O)c1ccccc1 (stereo not given)	inconclusive: 25.1 µM [inhibitor, partial curve]

Compound	Potency
CCOc1ccc2nc(N3CCCC(C(=O)N4CCN(CC)CC4)C3)sc2c1 (stereo not given)	inconclusive: 25.1 µM [inhibitor, single point]
Cc1ccc(C)c(NC(=O)C2CCCN2S(=O)(=O)c2ccc3c(c2)n(C)c(=O)c(=O)n3C)c1 (stereo not given)	inconclusive: 39.8 µM [inhibitor, single point]
O=C(NC(=S)Nc1cc(S(=O)(=O)N2CCOCC2)ccc1N1CCOCC1)c1ccco1	inactive
Cc1c(C(=O)Nc2nc3ccccc3[nH]2)oc2ccccc12	active: 3.16 µM
C=CCn1c(=O)c(C(=O)Nc2ccccc2O)c(O)c2ccccc21	inconclusive: 25.1 µM [inhibitor, partial curve]
CC(C)OC(=O)/C(C#N)=C\c1cccnc1	inactive
O=C(Cc1cccs1)Nc1cccc(-c2nc3ccccc3[nH]2)c1	inconclusive: 20 µM [inhibitor, single point]
CC1CCC/C(=N\NC(=S)NCc2ccccc2)C1 (stereo not given)	inactive
N#Cc1cc2c(nc1SCC(=O)Nc1nccs1)CCCCC2	inconclusive: 31.6 µM [inhibitor, partial curve]
CC(C)C(C)(C#N)NC(=O)CSc1ncnc2sc(-c3ccccc3)cc12 (stereo not given)	inconclusive: 39.8 µM [inhibitor, single point]
CCN(CC)c1ccc(S(=O)(=O)N(CC)CC)cc1NC(=O)c1cccnc1	inactive
C[N+](C)(C)CCC(=O)c1cccc2ccccc12	inconclusive: 25.1 µM [inhibitor, single point]
CN(CC#CC1(O)c2ccccc2-c2ccccc21)Cc1ccccc1	inactive
Oc1ccc(N2CCN(C(c3cccs3)c3nnnn3CCc3ccccc3)CC2)cc1 (stereo not given)	inconclusive: 20 µM [inhibitor, partial curve]
O=C(CCl)N1N=C(c2cccs2)CC1c1ccco1 (stereo not given)	inconclusive: 31.6 µM [inhibitor, single point]
COc1ccc(/C=C/C(=O)NC(=S)NNC(=O)c2cccs2)cc1OC	inconclusive: 39.8 µM [inhibitor, single point]
Cc1cc(C)n(CCC(=O)N/N=C/c2c(O)ccc3ccccc23)n1	active: 0.199 µM
CN(C(=O)COC(=O)c1cc(-c2ccccc2Cl)nc2ccccc12)C1CCS(=O)(=O)C1 (stereo not given)	inconclusive: 39.8 µM [inhibitor, single point]
Cc1cc(C)c(S(=O)(=O)n2ccc3ccccc32)c(C)c1	inactive
COC(=O)c1ccc(C2C(C#N)=C(N)Oc3cc(C)n(C)c(=O)c32)cc1 (stereo not given)	inconclusive: 25.1 µM [inhibitor, single point]
CN(/N=C/C=C/c1ccccc1)c1cc(=O)n(C)c(=O)[nH]1	inconclusive: 35.5 µM [inhibitor, single point]
C[C@@H](C(=O)Nc1nc(-c2ccccn2)cs1)N1C(=O)C2CCCCC2C1=O (stereo not given in full)	inconclusive: 35.5 µM [inhibitor, single point]
